# In the supplement of paper PMC8728848:
# This is one part of the list.
# B1: Epa12 (Candida glabrata) (protein)
# chain: MGSSHHHHHHSSGLVPRGSHMLEPDNSLQIFDSFLSNPSKYPLGCSPKITNPKKGLSMELYSYPYRKKGSHPCWDPAYLDPNFPRVGYKKNKLIARVDGVSGDINFNFHPKRQCTPIADYLPPNFNYNEPITTTNFTMLLYGYFKPKVTGLHTFDISADDLLFMNFGAGNAFDCCRRDSTADTFGNYVAWAIWGRRIVRNKLTVRLDKGIYYPLRLFFNNRDYYGQMRLTFKTEHGSERITDFSDYFFSVDDTSEGCPGLITYESECADVKSSTVLETDYITIQAEKE
# What was measured:
# Assay in all cases: glycan array binding signal (z-score within array); higher = stronger binding
# Details in all cases: glycan notation: IUPAC condensed, linker removed
# [1] = biological target: Gal(b1-3)GlcNAc(b1-2)Man(a1-3)[Gal(b1-3)GlcNAc(b1-2)Man(a1-6)]Man(b1-4)GlcNAc(b1-4)GlcNAc
# Outline: (§1)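 Glycan array data came from 3228 arrays in the Consortium for Functional Glycomics database, and only arrays with an available protein sequence were kept. Glycan names were put into IUPAC-condensed notation, and columns mapping to the same glycan were averaged. The binding signal is a within-array Z-score, averaged across arrays of one protein sequence run at different concentrations or buffers and across linkers. A negative Z-score can be read as non-binding.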
# [2] = biological target: Gal(b1-3)GlcNAc(b1-2)Man(a1-3)[Gal(b1-3)GlcNAc(b1-2)Man(a1-6)]Man(b1-4)GlcNAc(b1-4)[Fuc(a1-6)]GlcNAc
# Outline: as §1
# [3] = biological target: Gal(b1-3)GlcNAc(b1-2)Man(a1-3)[GlcNAc(b1-4)][Gal(b1-3)GlcNAc(b1-2)Man(a1-6)]Man(b1-4)GlcNAc(b1-4)GlcNAc
# Outline: as §1
# [4] = biological target: Gal(b1-3)GlcNAc(b1-2)[Gal(b1-3)GlcNAc(b1-6)]Man(a1-6)[Gal(b1-3)GlcNAc(b1-2)Man(a1-3)]Man(b1-4)GlcNAc(b1-4)GlcNAc
# Outline: as §1
# [5] = biological target: Gal(b1-3)GlcNAc(b1-3)Gal(b1-3)GlcNAc
# Outline: as §1
# [6] = biological target: Gal(b1-3)GlcNAc(b1-3)Gal(b1-4)Glc
# Outline: as §1
# [7] = biological target: Gal(b1-3)GlcNAc(b1-3)Gal(b1-4)GlcNAc
# Outline: as §1
# [8] = biological target: Gal(b1-3)GlcNAc(b1-3)Gal(b1-4)GlcNAc(b1-2)Man(a1-3)[Gal(b1-3)GlcNAc(b1-3)Gal(b1-4)GlcNAc(b1-2)Man(a1-6)]Man(b1-4)GlcNAc(b1-4)GlcNAc
# Outline: as §1
# [9] = biological target: Gal(b1-3)GlcNAc(b1-3)Gal(b1-4)GlcNAc(b1-2)[Gal(b1-3)GlcNAc(b1-3)Gal(b1-4)GlcNAc(b1-6)]Man(a1-6)[Gal(b1-3)GlcNAc(b1-3)Gal(b1-4)GlcNAc(b1-2)Man(a1-3)]Man(b1-4)GlcNAc(b1-4)[Fuc(a1-6)]GlcNAc
# Outline: as §1
# [10] = biological target: Gal(b1-3)GlcNAc(b1-3)Gal(b1-4)GlcNAc(b1-3)Gal(b1-4)GlcNAc(b1-2)[Gal(b1-3)GlcNAc(b1-3)Gal(b1-4)GlcNAc(b1-3)Gal(b1-4)GlcNAc(b1-6)]Man(a1-6)[Gal(b1-3)GlcNAc(b1-3)Gal(b1-4)GlcNAc(b1-3)Gal(b1-4)GlcNAc(b1-2)Man(a1-3)]Man(b1-4)GlcNAc(b1-4)[Fuc(a1-6)]GlcNAc
# Outline: as §1
# [11] = biological target: Gal(b1-3)GlcNAc(b1-3)Gal(b1-4)GlcNAc(b1-6)[Gal(b1-3)GlcNAc(b1-3)]Gal(b1-4)Glc
# Outline: as §1
# [12] = biological target: Gal(b1-3)GlcNAc(b1-3)Gal(b1-4)[Fuc(a1-3)]GlcNAc
# Outline: as §1
# [13] = biological target: Gal(b1-3)GlcNAc(b1-3)Gal(b1-4)[Fuc(a1-3)]GlcNAc(b1-6)[Gal(b1-3)GlcNAc(b1-3)]Gal(b1-4)Glc
# Outline: as §1
# [14] = biological target: Gal(b1-3)GlcNAc(b1-3)GalNAc
# Outline: as §1
# [15] = biological target: Gal(b1-3)GlcNAc(b1-6)Gal(b1-4)GlcNAc
# Outline: as §1
# [16] = biological target: Gal(b1-3)GlcNAc(b1-6)GalNAc
# Outline: as §1
# [17] = biological target: Gal(b1-3)GlcNAc(b1-6)[Gal(b1-3)]GalNAc
# Outline: as §1
# Gal(b1-3)GlcNAc6S = biological target: Gal(b1-3)GlcNAc6S
# Outline: as §1
# [18] = biological target: Gal(b1-3)[Fuc(a1-4)]GlcNAc
# Outline: as §1
# [19] = biological target: Gal(b1-3)[Fuc(a1-4)]GlcNAc(b1-2)Man
# Outline: as §1
# [20] = biological target: Gal(b1-3)[Fuc(a1-4)]GlcNAc(b1-2)Man(a1-3)[Gal(b1-3)[Fuc(a1-4)]GlcNAc(b1-2)Man(a1-6)]Man(b1-4)GlcNAc(b1-4)[Fuc(a1-6)]GlcNAc
# Outline: as §1
# [21] = biological target: Gal(b1-3)[Fuc(a1-4)]GlcNAc(b1-3)Gal(b1-3)[Fuc(a1-4)]GlcNAc
# Outline: as §1
# [22] = biological target: Gal(b1-3)[Fuc(a1-4)]GlcNAc(b1-3)Gal(b1-4)GlcNAc
# Outline: as §1
# [23] = biological target: Gal(b1-3)[Fuc(a1-4)]GlcNAc(b1-3)Gal(b1-4)[Fuc(a1-3)]GlcNAc
# Outline: as §1
# [24] = biological target: Gal(b1-3)[Fuc(a1-4)]GlcNAc(b1-6)GalNAc
# Outline: as §1
# [25] = biological target: Gal(b1-3)[GlcNAc(b1-6)]GalNAc
# Outline: as §1
# [26] = biological target: Gal(b1-3)[GlcNAc(b1-6)]GlcNAc
# Outline: as §1
# [27] = biological target: Gal(b1-3)[Neu5Ac(a2-6)]GalNAc
# Outline: as §1
# [28] = biological target: Gal(b1-3)[Neu5Ac(a2-6)]GlcNAc
# Outline: as §1
# [29] = biological target: Gal(b1-3)[Neu5Ac(a2-6)]GlcNAc(a1-4)Gal(b1-4)Glc
# Outline: as §1
# [30] = biological target: Gal(b1-3)[Neu5Ac(a2-6)]GlcNAc(b1-4)Gal(b1-4)Glc
# Outline: as §1
# [31] = biological target: Gal(b1-3)[Neu5Ac(b2-6)]GalNAc
# Outline: as §1
# [32] = biological target: Gal(b1-3)[Neu5Ac(b2-6)]GlcNAc
# Outline: as §1
# Gal(b1-4)Gal = biological target: Gal(b1-4)Gal
# Outline: as §1
# [33] = biological target: Gal(b1-4)GalNAc(a1-3)[Fuc(a1-2)]Gal(b1-4)GlcNAc
# Outline: as §1
# [34] = biological target: Gal(b1-4)GalNAc(b1-3)[Fuc(a1-2)]Gal(b1-4)GlcNAc
# Outline: as §1
# Gal(b1-4)Glc = biological target: Gal(b1-4)Glc
# Outline: as §1
binder,measurement,setting,value
B1,glycan array binding signal (z-score),[1],0.231
same,glycan array binding signal (z-score),[2],-0.148
same,glycan array binding signal (z-score),[3],-0.174
same,glycan array binding signal (z-score),[4],-0.008
same,glycan array binding signal (z-score),[5],0.285
same,glycan array binding signal (z-score),[6],-0.257
same,glycan array binding signal (z-score),[7],-0.208
same,glycan array binding signal (z-score),[8],-0.34
same,glycan array binding signal (z-score),[9],-0.042
same,glycan array binding signal (z-score),[10],-0.066
same,glycan array binding signal (z-score),[11],0.45
same,glycan array binding signal (z-score),[12],-0.023
same,glycan array binding signal (z-score),[13],-0.03
same,glycan array binding signal (z-score),[14],1.4
same,glycan array binding signal (z-score),[15],2.3
same,glycan array binding signal (z-score),[16],-0.093
same,glycan array binding signal (z-score),[17],0.005
same,glycan array binding signal (z-score),Gal(b1-3)GlcNAc6S,0.978
same,glycan array binding signal (z-score),[18],-0.176
same,glycan array binding signal (z-score),[19],-0.081
same,glycan array binding signal (z-score),[20],-0.215
same,glycan array binding signal (z-score),[21],-0.441
same,glycan array binding signal (z-score),[22],-0.282
same,glycan array binding signal (z-score),[23],-0.311
same,glycan array binding signal (z-score),[24],-0.273
same,glycan array binding signal (z-score),[25],-0.224
same,glycan array binding signal (z-score),[26],2.11
same,glycan array binding signal (z-score),[27],-0.146
same,glycan array binding signal (z-score),[28],-0.242
same,glycan array binding signal (z-score),[29],-0.272
same,glycan array binding signal (z-score),[30],0.193
same,glycan array binding signal (z-score),[31],-0.204
same,glycan array binding signal (z-score),[32],-0.282
same,glycan array binding signal (z-score),Gal(b1-4)Gal,-0.019
same,glycan array binding signal (z-score),[33],0.125
same,glycan array binding signal (z-score),[34],0.421
same,glycan array binding signal (z-score),Gal(b1-4)Glc,0.198
